In publication PMC6919601, “Identification of Plasmodium dipeptidyl aminopeptidase allosteric inhibitors by high throughput screening” (PLoS ONE, 2019):
Values joined by “and” are separate entries in the source; they are usually repeats but may differ in a detail not shown here. Equal values may be shown once. In all, about 110,000 compounds went through this assay and about 230 (0.21%) showed an effect of 50% or more. The list shows a part of the results.

Each compound was assayed against DPAP1 (Plasmodium falciparum, UniProt Q8IIJ9) (assay: primary screen, percent inhibition; read by cleavage of a fluorogenic dipeptide substrate; higher = more effect of the substance).
DPAP1, sequence (Q8IIJ9 whole entry, looked up): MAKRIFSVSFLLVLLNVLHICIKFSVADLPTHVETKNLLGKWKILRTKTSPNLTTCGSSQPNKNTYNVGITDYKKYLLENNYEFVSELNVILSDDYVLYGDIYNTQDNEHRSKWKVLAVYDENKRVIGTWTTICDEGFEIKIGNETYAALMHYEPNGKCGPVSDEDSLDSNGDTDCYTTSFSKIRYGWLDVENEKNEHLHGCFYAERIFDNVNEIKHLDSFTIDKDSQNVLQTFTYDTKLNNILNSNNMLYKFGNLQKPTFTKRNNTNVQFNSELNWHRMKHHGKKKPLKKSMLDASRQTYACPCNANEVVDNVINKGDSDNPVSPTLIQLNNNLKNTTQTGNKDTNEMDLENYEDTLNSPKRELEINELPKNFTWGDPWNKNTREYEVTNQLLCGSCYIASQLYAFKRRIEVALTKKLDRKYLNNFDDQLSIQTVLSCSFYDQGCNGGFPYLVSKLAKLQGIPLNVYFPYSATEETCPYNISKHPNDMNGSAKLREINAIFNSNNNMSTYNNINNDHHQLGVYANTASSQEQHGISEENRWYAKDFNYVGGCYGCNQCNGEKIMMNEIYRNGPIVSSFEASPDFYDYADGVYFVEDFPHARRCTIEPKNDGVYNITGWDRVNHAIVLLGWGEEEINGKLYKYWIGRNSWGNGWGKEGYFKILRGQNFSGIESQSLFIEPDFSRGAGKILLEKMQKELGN
Design: species or system P. falciparum D10 trophozoite lysates; single well
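Further: 30 min substrate incubation versus DMSO and 10 µM JCP410 controls.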

| SMILES | % Inhibition @ 10 uM |
| --- | --- |
| Cc1nc(S)nc(O)c1Cc1ccccc1 | 0.146% |
| COc1ccccc1NC(=O)c1cccc(C(=O)Nc2ccccc2OC)c1 | -13.3% |
| CCOC(=O)c1c(NC(=O)c2cc(S(N)(=O)=O)c(Cl)cc2Cl)sc2c1CCCC2 | 2.26% |
| CCOc1ccc(/C=C(\C#N)c2nc3ccccc3[nH]2)cc1OC | -2.07% |
| CCc1ccc(C2CC(c3ccc(OC)c(OC)c3OC)n3ncnc3N2)cc1 (stereo not shown) | 3.32% |
| Nc1c(C(=O)c2ccc(Br)cc2)sc2nc(-c3cccnc3)ccc12 | 0.605% |
| Cc1cccc(C(=O)Nc2cccc(-c3cn4ccsc4n3)c2)c1 | 3.05% |
| COc1ccc(NC(=O)c2cc(Cl)ccc2NC(=O)c2ccco2)cc1 | -6.77% |
| CC(C)n1cc(/C=C2\Sc3ccccc3C2=O)c2ccccc21 | -5.38% |
| O=C(CC1NCCNC1=O)Nc1cccc(C(F)(F)F)c1 (stereo not shown) | -12.2% |
| N#Cc1c(-c2ccccc2)oc2c1C(=O)c1ccccc1C2=O | -2.15% |
| CCCS(=O)(=O)c1c(S(=O)(=O)CCC)c2ccccn2c1C(=O)c1ccc(F)cc1 | 0.231% |
| O=S1(=O)C(/C=N/Cc2ccc3c(c2)OCO3)=C(O)c2sccc2N1Cc1ccccc1 | 7.46% |
| c1ccc(-c2cc(N3CCOCC3)n3cnnc3n2)cc1 | 0.895% |
| CCOc1cc(/C=C2/NC(=O)N(Cc3ccccc3)C2=O)c(Br)cc1O | -8.02% |
| COc1ccc(/C=C(\C#N)C(=O)Nc2ncc(Cc3cccc(Cl)c3)s2)cc1OC | 11.1% |
| COc1ccc2cc(Br)ccc2c1CC(=O)N1CCOCC1 | -4.75% |
| O=C(Nc1c2c(nn1-c1ccc(F)cc1)CSC2)c1ccccc1C(F)(F)F | -3.83% |
| Cc1ccc2cnn(CC(=O)NCCN3CCOCC3)c2c1 | -2.88% |
| CC(=O)c1c(C(C)=O)c(C)n(-c2ccc(N)cc2)c1C | -2.03% |
| COc1ccc(/C=C(\C#N)C(N)=S)cc1 | -2.51% |
| Clc1cccc(N2CCN(Cc3ccc(Br)s3)CC2)c1 | 3.16% |
| COc1ccc(NC(=O)Nc2ccc3oc(C)nc3c2)cc1 | -8.92% |
| Cc1c(-c2cccc(Cl)c2)nc2ccccc2c1C(=O)N1CCOCC1 | -5.29% |
| CCC(C)NC(=O)C1CCN(c2nn3c(=O)cc(C)nc3s2)CC1 (stereo not shown) | -0.281% |

| SMILES | % Inhibition @ 10 uM |
| --- | --- |
| CC(C)Cn1c2c(c(=O)[nH]c1=O)C(C(F)(F)F)(C(F)(F)F)NC(c1cccc(Cl)c1)=N2 | 0.413% |
| O=C(O)CNC(=S)N(Cc1ccccc1)Cc1ccccc1F | -3.78% |
| CN(Cc1ccccc1)C(=O)c1cc2ccc3cccnc3c2[nH]1 | 6.52% |
| COc1ccccc1CN1CCN(Cc2ccccc2Br)CC1 | -2.84% |
| Cc1ccc(C)c(-c2csc(-c3cccnc3)n2)c1 | -9.13% |
| Cc1ccccc1CNC(=O)CN(c1ccc(Cl)c(Cl)c1)S(C)(=O)=O | -2.28% |
| CC1(C)CC2=Nc3ccccc3NC(c3ccc[nH]3)C2=C(O)C1 (stereo not shown) | -0.736% |
| OCC1CCCN(Cc2ccccc2Cl)C1 (stereo not shown) | 3.83% |
| Cc1ccc(C(=O)N/C(=C/c2cccnc2)C(=O)N2CCCC2)cc1 | -5.79% |
| CCCCc1ccc(NC(=O)c2ccccc2C)cc1 | -8.2% |
| CC1CCC(N2CCN(C=O)CC2)CC1 (stereo not shown) | -5.11% |
| O=c1c2ccccc2ncn1C1c2ccccc2-c2ccccc21 | 3.17% |
| CC(=O)NS(=O)(=O)c1ccc(NC(=O)c2cc(-c3cccs3)nc3ccccc23)cc1 | -3.19% |
| CC1(C)CC(=O)c2c(nc3ccc([N+](=O)[O-])cc3c2N)C1 | -1.42% |
| Cc1cc(NC(=O)Cn2cnc3c(cnn3C)c2=O)[nH]n1 | -6.08% |
| CCOc1ccc(C(=O)Nc2ccccc2NC(=O)c2ccc(OCC)cc2)cc1 | -1.44% |
| CC(=O)N1N=C(c2ccco2)CC1c1ccc(Br)cc1 (stereo not shown) | -7.28% |
| N#CC1=C(SCC(N)=O)NC(=O)C(C#N)C12CCCCC2 (stereo not shown) | 2.55% |
| COc1ccc(CCNC(=O)c2nc(SC)ncc2Cl)cc1OC | 2.19% |
| CCOc1cccc(C(=O)N[C@@H](CC(C)C)C(=O)NCC#N)c1 | 1.71% |
| CCOC(=O)N1CCC(NCC(C)(C)CN(C)C)CC1 | -2.44% |
| Cc1ccc(/C=N/n2c(C)nnc2C)o1 | 4.67% |
| C=CCn1c(SCC(=O)NCCc2ccc(OCC)c(OCC)c2)nnc1-c1cccs1 | 2.7% |
| CC(Sc1nc(N2CCOCC2)nc(N2CCOCC2)n1)C(=O)Nc1ccccc1 (stereo not shown) | 0.993% |
| CCC(=O)Nc1ccc(-c2cn3ccsc3n2)cc1 | 4.67% |

| SMILES | % Inhibition @ 10 uM |
| --- | --- |
| COCCN1C(=O)/C(=C/c2c[nH]c3ccccc23)S/C1=N\c1ccccc1 | -7.1% |
| O=C(N[C@@H](CCc1ccccc1)C(=O)c1nc2ccccc2o1)OCC1CCCCC1 | -1.83% |
| COc1ccc(NC(=O)CN(c2cc(Cl)ccc2OC)S(C)(=O)=O)cc1OC | -1.22% |
| COc1ccc2nc(C)cc(Nc3ccc(N(C)C)cc3)c2c1 | -2.76% |
| CCc1ccc(OCC(=O)Nc2ccc3oc(-c4cccnc4)nc3c2)cc1 | 2.64% |
| CC1(C)[C@H]2CC=C(CN3CCN(c4ccccc4F)CC3)[C@@H]1C2 | 2.7% |
| COc1ccc2c(c1)CC(C1(O)C(=O)N(C)c3ccccc31)C2=O (stereo not shown) | -5.46% |
| O=C(O)c1ccc(/C=C2/NC(=O)N(c3ccc(Cl)cc3)C2=O)cc1 | -18.6% |
| COc1ccc(-c2cn3nc(N4CCCC(C(=O)O)C4)sc3n2)cc1 (stereo not shown) | -3.34% |
| OC1=C2C(=Nc3ncnn3C2c2ccccc2OC(F)F)CCC1 (stereo not shown) | -3.37% |
| CCNC(=O)/C(=C\c1ccccc1)NC(=O)c1cccc(Br)c1 | -2.68% |
| CCOC(=O)C1CCN(Cc2ccc(C(C)C)cc2)CC1 | -5.41% |
| COc1ccc(CCNC(=O)CSc2nncn3c2cc2oc(C)cc23)cc1OC | -9.85% |
| O=C(O)c1cccc([N+](=O)[O-])c1C(=O)Nc1cccc2ccccc12 | -3.38% |
| Cn1c(=O)c2c(nc(NCCCn3ccnc3)n2Cc2cccc3ccccc23)n(C)c1=O | 6.7% |
| CN(C)C(=O)N1CCCC(C(=O)NCCc2ccccc2)C1 (stereo not shown) | 3.66% |
| Cc1cc(C)c(C)c(S(=O)(=O)Nc2ccc(C(=O)N3CC(C)OC(C)C3)cc2)c1C (stereo not shown) | 0.709% |
| Fc1ccccc1N1CCN(Cc2ccncc2)CC1 | -3.42% |
| COc1ccc(-c2ncc3ccccc3n2)cc1 | -0.622% |
| COc1cc(OC)c(/C=C/[N+](=O)[O-])c([N+](=O)[O-])c1 | -3.58% |
| O=C(NCCCc1ccccc1)c1cccs1 | -5.34% |
| COc1cc(NC(=O)CCC2CCCCC2)cc(OC)c1OC | -2.58% |
| Cc1ccc(S(=O)(=O)N(CC(=O)N2CCc3ccccc3C2)c2ccccc2)cc1 | -9.87% |
| COc1ccc(/C=C2/C(=O)N(c3ccccc3)C(=S)N(c3ccccc3OC)C2=O)c(OC)c1 | -4.21% |
| CCN(CC)S(=O)(=O)c1cc(C(=O)Nc2cccc(C)c2)ccc1F | 13.2% |

| SMILES | % Inhibition @ 10 uM |
| --- | --- |
| COc1ccc(/C(O)=C/C(C)=N/c2cccc(C(F)(F)F)c2)cc1 | -0.105% |
| COc1ccc(Cl)cc1-n1c(C)cc(/C=C2\C(=N)N3N=C(S(C)(=O)=O)SC3=NC2=O)c1C | -1.54% |
| Cn1c(=O)[nH]c2nnc(-c3cccnc3)nc2c1=O | 9.1% |
| COc1ccc(-c2cc(C)no2)cc1S(=O)(=O)N(C)CCCc1ccco1 | -0.166% |
| Cn1c2ccccc2c2cc(C3NC(C(=O)O)CS3)ccc21 (stereo not shown) | -1.06% and 0.907% |
| CC(=O)c1ccc(C(=O)N(CCCN(C)C)c2nc3c(C)cccc3s2)cc1 | 0.745% |
| CCCn1c(C(O)c2ccc(C)cc2)nc2ccccc21 (stereo not shown) | 10.6% |
| Cc1s/c(=N\C(=O)c2ccco2)n(C)c1-c1ccc(F)cc1 | 0.145% |
| CC(=O)c1cccc(NC(=O)CN(C)S(=O)(=O)c2cc(Cl)ccc2Cl)c1 | -2.8% |
| O=C(c1cccc(F)c1)N1CCN(c2ccccc2F)CC1 | -6.68% |
| Fc1ccc(N2CCN(Cc3c(F)cccc3F)CC2)cc1 | 4.68% |
| O=C(O)C1CCCc2c1[nH]c1ccc(Cl)cc21 (stereo not shown) | -3.5% |
| Cn1c2c(c(=O)n(C)c1=O)CN(CCN1CCOCC1)CN2 | -1.06% |
| Cc1ccc(C2C(=O)N(C3CCCCC3)CC(=O)N2Cc2ccccc2Cl)cc1 (stereo not shown) | -0.406% |
| COc1ccc(N(C(C)C(=O)Nc2cc(C)ccc2OC)S(C)(=O)=O)cc1 (stereo not shown) | -11.1% |
| CCN(CC)C(=O)CSc1nc2nnc(C)c-2c(N)n1-c1cc(Cl)ccc1C | 10.1% |
| CCO/C(O)=C1/C(C)=Nc2ncnn2C1c1ccc(O)cc1 (stereo not shown) | -0.339% |
| O=C(C1c2ccccc2Oc2ccccc21)N1CCN(c2ccc(F)cc2)CC1 | 3.45% |
| O=C(CNC(=O)c1ccco1)c1ccc(F)cc1 | -0.132% |
| CCOC(=O)c1c(S(=O)(=O)NC(C)CC)c(C)n(C)c1C (stereo not shown) | 0.711% |
| COc1ccc(C2=C/C(=C/c3ccc4c(c3)OCO4)C(=O)O2)c(OC)c1 | -3.74% |
| CCCN(CCO)Cc1ccccc1Cl | -3.57% |
| COc1ccc(OC)c(CCNC(=O)C2CCN(c3nc4c(C)cc(C)cc4s3)CC2)c1 | 0.137% |
| COc1ccc(CN2CCN(C(=O)c3ccc(-n4ccc5ccccc54)s3)CC2)c(OC)c1OC | 9.39% |
| CNC(=S)N1CCn2cccc2C1c1ccc(F)cc1 (stereo not shown) | -1.43% |
